# Results as given in PubChem BioAssay AID504333 (National Center for Advancing Translational Sciences (NCATS), 2011).
# The campaign covered roughly 360,000 compounds. About 16,000 (4.4%) were called active. The shares of active, inactive and inconclusive entries below differ from those in the screen. The call rests on the fitted dose curve; in most records, active means well fitted inhibition curve with a large enough effect; inconclusive means small, poorly fitted or top-dose-only effect; inactive means no such curve, though single readings can be large or run the other way. Potencies beside an inconclusive call are fits to weak or partial responses and may not hold up.
# Biological target: Bromodomain adjacent to zinc finger domain protein 2B (Homo sapiens) (UniProt Q9UIF8)
# Chain of UniProt Q9UIF8 (Q9UIF8 whole entry, looked up, the tested form may be a part): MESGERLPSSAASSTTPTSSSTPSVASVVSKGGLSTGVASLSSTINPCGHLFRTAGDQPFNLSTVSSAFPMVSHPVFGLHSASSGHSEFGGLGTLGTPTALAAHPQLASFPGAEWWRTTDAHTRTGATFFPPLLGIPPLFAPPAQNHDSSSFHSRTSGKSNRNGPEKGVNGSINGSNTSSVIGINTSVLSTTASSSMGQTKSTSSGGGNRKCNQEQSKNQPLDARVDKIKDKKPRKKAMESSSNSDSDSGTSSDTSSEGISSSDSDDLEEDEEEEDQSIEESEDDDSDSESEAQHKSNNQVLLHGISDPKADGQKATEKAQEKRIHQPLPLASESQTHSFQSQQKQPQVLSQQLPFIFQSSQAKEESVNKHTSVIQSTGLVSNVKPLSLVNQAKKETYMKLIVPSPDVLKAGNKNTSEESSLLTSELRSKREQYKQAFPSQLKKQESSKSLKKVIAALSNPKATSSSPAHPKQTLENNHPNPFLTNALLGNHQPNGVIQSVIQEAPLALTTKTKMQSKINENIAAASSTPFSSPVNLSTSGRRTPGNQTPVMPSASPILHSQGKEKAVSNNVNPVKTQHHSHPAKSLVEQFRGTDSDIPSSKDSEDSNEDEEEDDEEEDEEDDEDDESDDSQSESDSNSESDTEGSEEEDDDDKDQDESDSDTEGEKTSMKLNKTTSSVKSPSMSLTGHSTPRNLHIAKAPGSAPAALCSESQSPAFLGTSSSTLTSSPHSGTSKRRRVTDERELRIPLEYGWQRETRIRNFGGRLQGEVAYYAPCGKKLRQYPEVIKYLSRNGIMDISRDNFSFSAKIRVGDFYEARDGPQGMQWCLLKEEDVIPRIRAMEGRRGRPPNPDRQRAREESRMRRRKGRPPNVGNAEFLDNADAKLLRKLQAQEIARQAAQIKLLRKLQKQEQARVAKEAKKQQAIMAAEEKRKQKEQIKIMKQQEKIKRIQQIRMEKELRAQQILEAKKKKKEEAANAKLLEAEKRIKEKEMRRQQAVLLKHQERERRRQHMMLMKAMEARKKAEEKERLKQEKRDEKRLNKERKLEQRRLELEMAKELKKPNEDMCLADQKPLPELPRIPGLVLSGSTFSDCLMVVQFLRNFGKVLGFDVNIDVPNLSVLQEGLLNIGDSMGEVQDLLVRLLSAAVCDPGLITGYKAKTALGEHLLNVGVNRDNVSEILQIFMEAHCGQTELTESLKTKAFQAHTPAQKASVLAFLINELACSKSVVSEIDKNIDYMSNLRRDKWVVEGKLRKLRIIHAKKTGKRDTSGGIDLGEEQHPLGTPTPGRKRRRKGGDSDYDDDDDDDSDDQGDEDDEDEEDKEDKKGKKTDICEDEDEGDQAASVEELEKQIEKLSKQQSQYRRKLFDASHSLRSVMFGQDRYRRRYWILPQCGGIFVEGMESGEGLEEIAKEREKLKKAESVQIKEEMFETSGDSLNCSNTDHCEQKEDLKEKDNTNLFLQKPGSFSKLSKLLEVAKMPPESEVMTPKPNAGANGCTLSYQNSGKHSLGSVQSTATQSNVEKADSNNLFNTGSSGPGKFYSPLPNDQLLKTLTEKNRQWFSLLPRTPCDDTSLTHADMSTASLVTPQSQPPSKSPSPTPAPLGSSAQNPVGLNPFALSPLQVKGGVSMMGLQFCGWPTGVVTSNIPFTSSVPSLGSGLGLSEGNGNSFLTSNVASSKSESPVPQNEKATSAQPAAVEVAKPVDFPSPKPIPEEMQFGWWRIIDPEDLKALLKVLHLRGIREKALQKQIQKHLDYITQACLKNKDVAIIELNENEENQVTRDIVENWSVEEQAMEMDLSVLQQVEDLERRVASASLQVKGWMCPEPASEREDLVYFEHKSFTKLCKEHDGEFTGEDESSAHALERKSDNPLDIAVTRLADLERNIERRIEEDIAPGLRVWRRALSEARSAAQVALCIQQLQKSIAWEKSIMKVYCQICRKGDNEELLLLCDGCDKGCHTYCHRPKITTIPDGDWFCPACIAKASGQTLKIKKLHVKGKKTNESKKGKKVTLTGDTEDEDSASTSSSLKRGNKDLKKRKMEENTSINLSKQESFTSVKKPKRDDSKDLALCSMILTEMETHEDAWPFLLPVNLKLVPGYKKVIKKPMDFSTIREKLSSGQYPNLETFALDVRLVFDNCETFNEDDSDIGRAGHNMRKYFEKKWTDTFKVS
# Experiment: qHTS Assay for Inhibitors of BAZ2B; further: nearly all actives have a fitted effect of over 60% in size
# Details: AlphaScreen BAZ2B-H3K14Ac peptide displacement; activity change, negative = inhibition: at 114 µM (top of the series) unless noted
# How it was run: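 AlphaScreen luminescence quantifies BAZ2B engagement of H3K14Ac peptide; the protein and biotinylated peptide are both at 50 nM final, buffer PBS pH 7.4 with 0.01% Tween-20, all steps at room temperature.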
# On the % scale 0 is the no-effect control and ±100 the full control effect; potency means the concentration at half of the fitted maximal effect; tags describe the fitted curve by direction and shape.
SMILES,Potency,"activity change, negative = inhibition"
CCOC(=O)c1cccc(-n2c(C)cc(C=O)c2C)c1,"inconclusive: 70.8 µM [inhibitor, single point]",–
Clc1ccc(C2=NNC(=NCc3ccccc3)SC2)cc1,"inconclusive: 44.7 µM [inhibitor, partial curve]",–
Cc1ccc(CSc2nnc(SCC(=O)N/N=C/c3c[nH]c4ccccc34)s2)cc1,active: 20 µM,–
Cc1cc(CN(C)C(=O)CC2C(=O)NCCN2Cc2ccc(-c3ccccc3)cc2)on1 (stereo unspecified),"inconclusive: 56.2 µM [inhibitor, partial curve]",–
Cc1ccccc1NS(=O)(=O)c1ccc(-c2ccc(=O)[nH]n2)o1,"inconclusive: 7.08 µM [inhibitor, full curve, poor fit]",–
Cc1cc(C(=O)NNS(=O)(=O)c2cc(C(=O)O)ccc2Cl)c(C)n1-c1ccccc1,"inconclusive: 89.1 µM [inhibitor, single point]",–
COc1ccc(C(c2nnnn2Cc2ccccc2)N2CCN(c3ccccc3)CC2)cc1 (stereo unspecified),active: 79.4 µM,–
O=C(NNC(=S)NC(=O)c1ccccc1[N+](=O)[O-])c1ccccc1O,"inconclusive: 0.708 µM [inhibitor, full curve, poor fit]",–
O=C(CC(c1ccccc1)c1ccccc1)OCn1nnc2ccccc2c1=O,–,inactive: 12.1%
CN1C(=O)CC(n2c(CO)nc3ccccc32)C1=O (stereo unspecified),–,inactive: 10.7%
CC(C)C(c1nnnn1C1CCCC1)N1CCc2ccccc21 (stereo unspecified),"inconclusive: 79.4 µM [inhibitor, partial curve]",–
Cc1ccccc1-n1c(-c2ccc(=O)[nH]n2)n[nH]c1=S,"inconclusive: 89.1 µM [inhibitor, single point]",–
O=C(c1ccc2c(c1)N(Cc1ccccc1F)C(=O)c1ccccc1S2=O)N1CCC(Cc2ccccc2)CC1 (stereo unspecified),"inconclusive: 22.4 µM [inhibitor, full curve]",–
O=C(Cn1c(=O)cnc2ccccc21)N1CCN(S(=O)(=O)c2cccc([N+](=O)[O-])c2)CC1,–,inactive: 10.1%
CCc1cc(-c2nc(N)ncc2-c2csc(C)n2)c(O)cc1OC,"inconclusive: 70.8 µM [inhibitor, partial curve]",–
O=[N+]([O-])c1cccc(-c2nc(NCc3ccccc3)c3ccccc3n2)c1,"inconclusive: 44.7 µM [inhibitor, partial curve]",–
NNC(=S)Nc1ccc(S(=O)(=O)N2CCCCC2)cc1,"inconclusive: 79.4 µM [inhibitor, single point]",–
CCN(CCCNC(=O)C1CCN(S(=O)(=O)c2c(C)[nH]c(=O)[nH]c2=O)CC1)c1cccc(C)c1,–,inactive: -8.13%
COCCOc1cc(NC(=O)CS(=O)CC(=O)N(C)C)c(Cl)cc1Cl (stereo unspecified),–,inactive: 0.554%
C/C(O)=c1/c(=O)nc2cccc3c2=c1c1ccccc1c3=O,–,inactive: -36.1%
COc1ccc2nc(N=Nc3ccc(O)c4ccccc34)sc2c1,active: 2.82 µM,–
COc1cc(C(=O)N/N=C(\c2ccccc2)c2ccccn2)cc(OC)c1OC,"inconclusive: 70.8 µM [inhibitor, single point]",–
Cc1ccc(S(=O)(=O)c2nc(-c3ccccc3)oc2N2CCCC2)cc1,"inconclusive: 89.1 µM [inhibitor, single point]",–

SMILES,Potency,"activity change, negative = inhibition"
Cc1cccc(-n2ncc3c2CCCC3NC(=O)CN2CCCC2=O)c1C (stereo unspecified),–,inactive: -1.02%
COc1ccc(CCNC(=O)c2cc(-c3ccccc3O)n[nH]2)cc1OC,"inconclusive: 89.1 µM [inhibitor, single point]",–
O=S(=O)(Nc1cc(S(=O)(=O)N2CCOCC2)ccc1N1CCOCC1)c1ccc2c(c1)OCCO2,–,inactive: 0.233%
COCCOC(=O)c1[nH]c2c(c1C)C(=O)CC(c1ccc(N(C)C)cc1)C2 (stereo unspecified),"inconclusive: 31.6 µM [inhibitor, partial curve]",–
O=C(CN1CCN(c2nc(-c3ccc(F)cc3)cs2)CC1)NCc1ccc2c(c1)OCO2,"inconclusive: 39.8 µM [inhibitor, full curve]",–
CCOC(=O)c1cc(-c2ccc(F)cc2)n(CCC(=O)Nc2nc3cc(C)c(C)cc3s2)c1C,–,inactive: 2.04%
COc1ccc(OCc2ccc(-c3nc(C#N)c(NCc4ccc(F)cc4)o3)o2)cc1,"inconclusive: 10 µM [inhibitor, full curve]",–
COC(=O)C1=C(C)NC(=O)/C1=C\c1cccs1,–,inactive: -4.87%
Cc1nn(-c2ccccc2)c2nc(-c3ccco3)cc(C(=O)O)c12,"inconclusive: 89.1 µM [inhibitor, single point]",–
Cc1cc(Nc2nn(C)c(N)c2C#N)ccc1F,–,inactive: -11.2%
CCOc1ccc2nc(N(Cc3cccnc3)C(=O)c3ccco3)sc2c1,–,inactive: -8.56%
COc1ccc(Cl)cc1NC(=O)c1cc(-c2ccccc2)on1,–,inactive: -14.4%
Cc1cc(C(=O)NNC(=S)Nc2ccccc2)nn1C,–,inactive: 2.56%
CCOc1ccc(NC(=O)CSc2nc(-c3ccccc3)c3cc(OCC)ccc3n2)cc1,–,inactive: -1.91%
CCOC(=O)C1CCN(C(=O)CCc2nc3sc4c(c3c(=O)[nH]2)CCCC4)CC1,"inconclusive: 79.4 µM [inhibitor, single point]",–
CCc1ccc(C(CNC(=O)c2ccc3c(=O)n(-c4ccccc4F)c(=S)[nH]c3c2)N(C)C)cc1 (stereo unspecified),"inconclusive: 44.7 µM [inhibitor, partial curve]",–
COc1cc(NS(=O)(=O)c2ccc(NC(=O)COc3ccc(Cl)cc3Cl)cc2)nc(OC)n1,–,inactive: 6.23%
O=C(Cn1[nH]c(=O)c2ccccc2c1=O)Nc1cccc(S(=O)(=O)N2CCCCCC2)c1,"inconclusive: 39.8 µM [inhibitor, partial curve]",–
CC(C)(C)c1ccc(C(=O)N/C(=C/c2cccs2)C(=O)NCc2ccco2)cc1,"inconclusive: 44.7 µM [inhibitor, partial curve]",–
Cc1ccc(CNCc2ccc3c(c2)n(C)c(=O)n3C)cc1,–,inactive: -11.3%
c1ccc(Nc2c(-c3ccccc3)nc3ncccn23)cc1,–,inactive: -23.7%
COc1ccc(C(=O)NC(Nc2ccc(C)cc2)C(Cl)(Cl)Cl)cc1 (stereo unspecified),"inconclusive: 89.1 µM [inhibitor, single point]",–
Cc1cc(C)cc(NC(=O)CSc2nccn2C2CCCC2)c1,"inconclusive: 50.1 µM [inhibitor, partial curve, poor fit]",–
